Reference: the supplement of paper PMC7125110
± gives the standard error. Variants at the floor of the assay are shown more often than the library holds them.

B1: glmS ribozyme (parent)
chain: AUAAAAGCGCCAGAACUACAGAAAUGUAGUUGACGAGGAGGAGGUUUAUCGAAUUUUCGGCGGAUGCCUCCAAA

Assays:
Conditions in all cases: with glucosamine-6-phosphate
glucosamine-6-phosphate [1] = variants of: B1; experiment: self-cleavage kobs at 640 uM GlcN6P; higher = faster cleavage; RNA array
Procedure, shortened: (§1)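 In situ transcription by E. coli RNA polymerase produced barcoded ribozyme variants on sequenced MiSeq chips, and a hybridised Cy3 probe tracked them at 37 °C. Glucosamine-6-phosphate was flowed in at 40 μM to 10 mM in HEPES/KCl/Mg(OAc)2 buffer. kcat and KM were taken from weighted Michaelis–Menten fits of kobs values from exponential decay fits.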

glucosamine-6-phosphate [2] = variants of: B1; experiment: self-cleavage kobs at 2500 uM GlcN6P; higher = faster cleavage; RNA array
Procedure, shortened: as §1

glucosamine-6-phosphate [3] = variants of: B1; experiment: self-cleavage kobs at 10000 uM GlcN6P; higher = faster cleavage; RNA array
Procedure, shortened: as §1

glucosamine-6-phosphate [4] = variants of: B1; experiment: self-cleavage kobs at 160 uM GlcN6P; higher = faster cleavage; RNA array
Procedure, shortened: as §1

Variant | self-cleavage kobs at 640 uM GlcN6P (glucosamine-6-phosphate [1]) [s⁻¹] | self-cleavage kobs at 2500 uM GlcN6P (glucosamine-6-phosphate [2]) [s⁻¹] | self-cleavage kobs at 10000 uM GlcN6P (glucosamine-6-phosphate [3]) [s⁻¹] | self-cleavage kobs at 160 uM GlcN6P (glucosamine-6-phosphate [4]) [s⁻¹]
A14U C70U C71G | 6.53e-05 ± 1.7e-05 | 3.73e-05 ± 1.3e-05 | 3.81e-05 ± 1.8e-05 | 
C16G C34G A42C G43A | < 1e-05 |  |  | 
G29A A33G | < 1e-05 | < 1e-05 | < 1e-05 | < 1e-05
C11U U56A C70G | 0.000217 ± 5.8e-05 | 0.000145 ± 3e-05 |  | 
C10U U49A G51A A53C | < 1e-05 |  |  | < 1e-05
U30C G63C | < 1e-05 |  | < 1e-05 | 
C10G G37C G43A | < 1e-05 |  |  | 
G9C A33C G44C C70A | < 1e-05 | < 1e-05 |  | 
A15U G35C U54G | < 1e-05 | < 1e-05 |  | 
C11U A39C | 8.75e-05 ± 1.3e-05 | 0.000299 ± 5e-05 | 0.00051 ± 5.5e-05 | 
C10U A53G G63A | < 1e-05 | < 1e-05 |  | 
A14G G29A A36U U47C C67U | < 1e-05 |  |  | < 1e-05
G32C G38A A48C | < 1e-05 |  |  | 
G13U G35U A42C U46C | < 1e-05 |  |  | 
C10G G40A C50A | < 1e-05 | < 1e-05 | < 1e-05 | < 1e-05
U30A C34G A48U A52C | < 1e-05 |  |  | 
G13C A15U A33U | < 1e-05 |  | < 1e-05 | 
G29A A48U G62U | < 1e-05 | < 1e-05 |  | 
A28G C70A | 6.33e-05 ± 2.1e-05 | 0.000497 ± 0.00012 |  | 0.000126 ± 3.7e-05
U30G G41A G63C | < 1e-05 | < 1e-05 |  | 
C10A C16U G35A | < 1e-05 | < 1e-05 |  | 
A15U G43C | < 1e-05 |  |  | 
C10A G29A A64U | < 1e-05 | < 1e-05 |  | 

Variant | self-cleavage kobs at 640 uM GlcN6P (glucosamine-6-phosphate [1]) [s⁻¹] | self-cleavage kobs at 2500 uM GlcN6P (glucosamine-6-phosphate [2]) [s⁻¹] | self-cleavage kobs at 10000 uM GlcN6P (glucosamine-6-phosphate [3]) [s⁻¹] | self-cleavage kobs at 160 uM GlcN6P (glucosamine-6-phosphate [4]) [s⁻¹]
G32U A53C | 0.000104 ± 2.3e-05 | 0.000105 ± 2.7e-05 | 0.000275 ± 4.6e-05 | 
G9U C16A G38U | < 1e-05 | < 1e-05 |  | 
A12G U46G G59U | < 1e-05 | < 1e-05 |  | < 1e-05
A12G U69C | 0.000152 ± 2e-05 | 0.000243 ± 5.4e-05 | 0.0007 ± 8.2e-05 | 
C10U U31G A33G G40U C58G C71U | < 1e-05 | < 1e-05 |  | 
G9A C16U U30C U55G | < 1e-05 | < 1e-05 |  | 
C11G A36U U47G | < 1e-05 |  |  | 
U30C G37C | < 1e-05 |  | < 1e-05 | < 1e-05
U30A U56C | 0.000126 ± 2.4e-05 | 0.000369 ± 8.1e-05 | 0.00113 ± 0.00015 | 
G9U C10A A33U | < 1e-05 | < 1e-05 |  | 
G9U A42U C50A | < 1e-05 |  |  | 
G29A G41C G51C | < 1e-05 | < 1e-05 |  | 
C8U C11G G41A A52G G60U G63A | < 1e-05 |  |  | < 1e-05
G9A G32A A42G | < 1e-05 | < 1e-05 |  | 
G9A C16U G44U | < 1e-05 | < 1e-05 |  | 
C8A U30C G40A | < 1e-05 | < 1e-05 | < 1e-05 | 
G13U A33G U54C | < 1e-05 | < 1e-05 |  | 
G29U C50U G63U | < 1e-05 |  |  | 
C10U A39U C67G | < 1e-05 |  |  | < 1e-05
C8A G41A G51U G63C | < 1e-05 | < 1e-05 |  | < 1e-05
A14G C34U U54G C58G U69G | 0.000551 ± 0.0002 |  |  | 
C10U G35U A64U | < 1e-05 | < 1e-05 |  | 
U31G G41A U56G | < 1e-05 |  |  | 

Variant | self-cleavage kobs at 640 uM GlcN6P (glucosamine-6-phosphate [1]) [s⁻¹] | self-cleavage kobs at 2500 uM GlcN6P (glucosamine-6-phosphate [2]) [s⁻¹] | self-cleavage kobs at 10000 uM GlcN6P (glucosamine-6-phosphate [3]) [s⁻¹] | self-cleavage kobs at 160 uM GlcN6P (glucosamine-6-phosphate [4]) [s⁻¹]
G13C G40U U57C A64G | < 1e-05 |  |  | 
C11G G60U A64U | < 1e-05 | < 1e-05 |  | 
G32C G63A U65A | < 1e-05 | < 1e-05 |  | 
G32C G44U | < 1e-05 | < 1e-05 |  | < 1e-05
A14U C16A G66A | 3.92e-05 ± 1.7e-05 | 0.000107 ± 2.6e-05 |  | 
C19A G38A G63U | < 1e-05 |  |  | 
C11U G32C G62A | < 1e-05 | < 1e-05 |  | < 1e-05
C10G C11A C58G G63U C68A | 0.000138 ± 3.5e-05 | 0.000117 ± 3.3e-05 |  | 
G32C U46G G59U | < 1e-05 |  |  | 
A12G G44U | < 1e-05 |  |  | 
C11U G13C G62A | < 1e-05 | < 1e-05 |  | < 1e-05
G13A A33C A48G G62U | < 1e-05 |  |  | < 1e-05
C8A A42U U56C | < 1e-05 |  |  | 
G32C U45G G60A C68G | < 1e-05 | < 1e-05 |  | 
A15G G60U A64G C70A | < 1e-05 | < 1e-05 |  | 
C8G A42U U46A A53U | < 1e-05 |  |  | 
U30G A36C | < 1e-05 | < 1e-05 | < 1e-05 | 
G9U A14G G60C G63C | < 1e-05 | < 1e-05 |  | 
C11A A64U | < 1e-05 |  |  | < 1e-05
A33C C50G G51A G60C | < 1e-05 | < 1e-05 |  | 
G32C U65A | < 1e-05 | < 1e-05 |  | 
A12G G60U | < 1e-05 | < 1e-05 |  | < 1e-05
G13A U45C C50U C71G | < 1e-05 | < 1e-05 |  | < 1e-05

Variant | self-cleavage kobs at 640 uM GlcN6P (glucosamine-6-phosphate [1]) [s⁻¹] | self-cleavage kobs at 2500 uM GlcN6P (glucosamine-6-phosphate [2]) [s⁻¹] | self-cleavage kobs at 10000 uM GlcN6P (glucosamine-6-phosphate [3]) [s⁻¹] | self-cleavage kobs at 160 uM GlcN6P (glucosamine-6-phosphate [4]) [s⁻¹]
G9C A64G C71A | < 1e-05 | < 1e-05 |  | 
A33C A42G G51U G62U | < 1e-05 | < 1e-05 |  | 
C11A G43C C61G | < 1e-05 | < 1e-05 |  | < 1e-05
G9A A52G C61A | < 1e-05 | < 1e-05 |  | < 1e-05
U30A G43A U56G | < 1e-05 |  |  | 
A12G A48U C70A | < 1e-05 |  |  | 
G13U A42U G44A U55G | < 1e-05 |  |  | 
A12C G62U C67A | < 1e-05 |  |  | 
A14U U57G G62A | < 1e-05 |  |  | 
C10U G43C G51U C70G | < 1e-05 | < 1e-05 |  | < 1e-05
C11U U30C G43A | < 1e-05 |  |  | 
C8A C61A | < 1e-05 | < 1e-05 |  | < 1e-05
C8A C34U G40A A52U | < 1e-05 | < 1e-05 | < 1e-05 | < 1e-05
C10G G40U C67U | < 1e-05 |  |  | 
A15G A36U C71G | < 1e-05 |  |  | 
G13C A36G G63C | < 1e-05 |  |  | < 1e-05
G32U C71G | 6.13e-05 ± 1.6e-05 | 7.51e-05 ± 9.8e-06 |  | 
C11A A52U C58G | < 1e-05 | < 1e-05 |  | 
U30C C68U | 4.07e-05 ± 6.8e-06 | 9.82e-05 ± 1.1e-05 | 0.000111 ± 8.5e-06 | 
C8G G51C U69A C70U | < 1e-05 | < 1e-05 |  | 
A12U G35A A39U A42U U49A C58A | < 1e-05 | < 1e-05 | < 1e-05 | < 1e-05
C10U G32C A36G A39U | < 1e-05 | < 1e-05 |  | < 1e-05
C8G U30G G63C | < 1e-05 | < 1e-05 |  | < 1e-05

Variant | self-cleavage kobs at 640 uM GlcN6P (glucosamine-6-phosphate [1]) [s⁻¹] | self-cleavage kobs at 2500 uM GlcN6P (glucosamine-6-phosphate [2]) [s⁻¹] | self-cleavage kobs at 10000 uM GlcN6P (glucosamine-6-phosphate [3]) [s⁻¹] | self-cleavage kobs at 160 uM GlcN6P (glucosamine-6-phosphate [4]) [s⁻¹]
G9U G40A C61G | < 1e-05 |  |  | 
A15G C16U C68G | 8.06e-05 ± 1.8e-05 | 8.91e-05 ± 3e-05 |  | 
G13C A14G G32A | 0.00264 ± 0.00054 | 0.00874 ± 0.0043 |  | 0.000606 ± 0.00018
A12U G35U C70G | < 1e-05 |  |  | 
G9C G35U C50U A64C | < 1e-05 |  |  | 
A15G C34U A64G | < 1e-05 | < 1e-05 |  | < 1e-05
G29A U47G A53G | 0.000173 ± 3.2e-05 | 0.000477 ± 0.00013 |  | 6.62e-05 ± 2e-05
G29A G60U | < 1e-05 | < 1e-05 | < 1e-05 | 
C16A A42U U55A | < 1e-05 | < 1e-05 |  | < 1e-05
G9U A22C | < 1e-05 |  |  | 
A12C C16U A33G | < 1e-05 |  | < 1e-05 | 
C11G A39C | < 1e-05 |  |  | 
U30A G40U G60C C61A | < 1e-05 | < 1e-05 |  | 
G9A G32C C67U | < 1e-05 |  |  | < 1e-05
G32A G66A | 0.000269 ± 6.9e-05 | 0.000911 ± 0.00018 | 0.0019 ± 0.00044 | 
C8A C10A G29C U31G G37A U46C | < 1e-05 | < 1e-05 |  | < 1e-05
C10G A48G | < 1e-05 | < 1e-05 | < 1e-05 | 
C11U A33C G41A | < 1e-05 |  |  | 
C8U G44U A48C | < 1e-05 | < 1e-05 |  | 
A14U U30G U69G C71G | 0.000132 ± 4.4e-05 | 0.00026 ± 5.9e-05 |  | 
G13C C50A | < 1e-05 |  | < 1e-05 | 
